According to the BET-seq Pho4 binding data (Le et al. 2018):
Some of the results follow. Values were computed here from the reads of four pooled replicates and scatter widely.

Target: T1, Pho4 (S. cerevisiae) (UniProt P07270)
T1 sequence: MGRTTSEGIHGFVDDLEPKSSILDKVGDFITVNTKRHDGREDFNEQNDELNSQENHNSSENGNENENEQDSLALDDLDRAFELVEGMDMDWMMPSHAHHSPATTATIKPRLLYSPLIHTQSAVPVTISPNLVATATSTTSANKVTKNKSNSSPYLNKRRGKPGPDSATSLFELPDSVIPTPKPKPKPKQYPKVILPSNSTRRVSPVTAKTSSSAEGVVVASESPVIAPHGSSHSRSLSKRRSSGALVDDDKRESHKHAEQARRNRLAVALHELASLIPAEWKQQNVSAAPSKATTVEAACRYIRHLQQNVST
Assay: relative binding free energy (BET-seq); higher = weaker binding
Conditions: reference: library average

Sequence | relative binding free energy [kcal/mol]
ATCTTCACGTGAGTTT | 0.26
GCGGGCACGTGCGGAG | -0.05
ATATGCACGTGTGTAT | -0.07
TCTTTCACGTGGGTAA | 0.04
TGGCGCACGTGGGTCT | -0.19
GTTTACACGTGTGTGG | 0.22
TTAAGCACGTGATGGT | 0.02
TATAGCACGTGTCGTT | -0.06
GGGAGCACGTGGAGGG | -0.17
TAGATCACGTGAGTCG | 0.23
ATGTGCACGTGACGTT | 0.09
TAGAGCACGTGGTTGT | -0.12
AATTTCACGTGATAGG | 0.36
TGTATCACGTGACGAG | 0.16
GAGGTCACGTGGAAGG | 0.21
TTGGTCACGTGCAGCT | 0.07
CTAGTCACGTGCGTTG | 0.07
TCTTTCACGTGTATCT | 0.35
GTATGCACGTGTTTGT | 0.02
CGGGGCACGTGGTCTT | -0.32
TGCCGCACGTGTGTGG | -0.07
GTATCCACGTGTAGGT | 0.18
ATAGGCACGTGAGGGA | 0.14
ATTGACACGTGGATAT | 0.16
TGTGCCACGTGGGTTG | -0.21
GATGTCACGTGTGAGA | 0.37

Sequence | relative binding free energy [kcal/mol]
TTTCGCACGTGTCGTT | 0
ATATTCACGTGTATAA | 0.13
GAGCTCACGTGTTGGA | 0.41
GCGGGCACGTGATTGG | -0.02
TTAGACACGTGGAGGG | 0
CATGACACGTGGTTTA | 0.04
TAGGACACGTGTGTAG | 0.06
GTGAGCACGTGGTTTC | -0.08
AGAATCACGTGGAGGA | 0.21
ATGTGCACGTGGTGAA | -0.26
AGCATCACGTGTTAGG | 0.16
TTTAGCACGTGAGGCC | 0.2
TGGAGCACGTGATTGT | 0.01
GCGACCACGTGGTGTT | 0.03
GTGTACACGTGTTATG | 0.17
GGTGGCACGTGGGCCC | -0.09
ACGGGCACGTGTATGT | -0.1
AGTAGCACGTGATGGG | 0.02
GGCTTCACGTGTGAGG | 0.39
GGGGTCACGTGCGTAA | 0.11
TGCGGCACGTGTGGAC | -0.08
ATGTGCACGTGCGTAT | -0.08
CCGTGCACGTGGTTGT | -0.05
TTAGTCACGTGATCTG | 0.03
TGACTCACGTGGAGGG | -0.01
AGATGCACGTGGTGTT | -0.11

Sequence | relative binding free energy [kcal/mol]
GACATCACGTGGGTTT | 0.27
TCTGTCACGTGGGTTT | 0.04
AGGTGCACGTGCTGCG | -0.22
AGGGTCACGTGCTGCT | 0.09
GGTGACACGTGCGTGT | 0.01
TTTGGCACGTGGGAAT | -0.19
AGTTTCACGTGGATCA | 0.22
TATAACACGTGTGCGG | -0.05
TTTAACACGTGTGGGA | 0.06
TGGGTCACGTGTACGC | 0.1
GGTTTCACGTGTAATC | 0.31
GTGTACACGTGGGTTG | -0.09
TGTGACACGTGGCAGG | -0.05
TTGTGCACGTGGTATA | -0.15
AATGGCACGTGGGCTG | -0.21
GCGTGCACGTGCGGGG | -0.09
CTGGGCACGTGAGGTG | 0.03
ATCATCACGTGGGTAG | 0.15
AAGTTCACGTGGTATC | 0.37
GTTAACACGTGTGGAA | 0.22
GGCTGCACGTGAGGCG | 0.23
ATATACACGTGGGAAG | -0.03
CTAATCACGTGTTTGT | 0.12
GTTGACACGTGGGGGA | -0.06
TACGCCACGTGTGGGT | -0.02
TGTTTCACGTGGCGAT | 0.24

Sequence | relative binding free energy [kcal/mol]
TTGGTCACGTGAAGAC | 0.45
GGTTGCACGTGTCGAT | 0.21
AATTGCACGTGAGATT | 0.27
TTGGGCACGTGCTGTC | -0.14
GTTAGCACGTGTTTGT | -0.06
AGATACACGTGTTGTT | 0.11
AGGGGCACGTGATAAA | -0.06
CTGTTCACGTGTGGGT | 0.38
TAGTTCACGTGCAAGG | 0.28
ATAGTCACGTGGGGAT | -0.02
GGACTCACGTGTTTGG | 0.38
AGGATCACGTGTTTAT | 0.23
CTAGACACGTGGGGTT | -0.17
CTGCTCACGTGCGTGG | 0.15
TATCACACGTGGAGGT | 0.1
CTTTGCACGTGTAGTA | -0.06
AGGGGCACGTGCTGAG | -0.28
CGGTCCACGTGTGTTT | 0.05
TGTAACACGTGGTAGC | 0.09
ATGCACACGTGTGGTT | 0.01
AGTGCCACGTGTTGTT | -0.01
GGCTTCACGTGGATGG | 0.35
TAGGACACGTGGTGGA | 0.01
AGGTGCACGTGTGCAT | -0.25
CTGCGCACGTGGTGGA | -0.23
GGCAGCACGTGTTGAG | -0.05

Sequence | relative binding free energy [kcal/mol]
GATTGCACGTGCGGGG | 0.08
TGATGCACGTGTGCGG | -0.14
TATGGCACGTGACGGA | -0.07
CGTTTCACGTGGGGAC | 0.23
CGCTGCACGTGTAGGG | 0.03
TAATACACGTGGGAGT | 0.09
GGGATCACGTGAGGAT | 0.45
GAGTGCACGTGTAATG | 0.12
AGGGGCACGTGAGACA | 0.04
CATAGCACGTGGTTTT | -0.06
TGGTCCACGTGGTTCG | -0.05
CGAGGCACGTGTTGTA | -0.12
ATTCGCACGTGGGTGA | -0.32
TTACGCACGTGATGGG | 0.14
AGTCTCACGTGATGGT | 0.27
CGGTTCACGTGTCGGT | 0.25
GGGGACACGTGATTTT | 0.13
GATTGCACGTGGATGT | 0.02
TGTCGCACGTGAGTTC | 0.24
TACGGCACGTGGATGG | 0.02
CTGTACACGTGCTTGT | 0.05
GGTTACACGTGTGGCC | 0.3
CATGGCACGTGTTTTA | -0.21
TCATACACGTGATGGG | 0.14
CGTGTCACGTGTAGTC | -0.01
TTGTTCACGTGGGAGT | 0.28

Sequence | relative binding free energy [kcal/mol]
CTATACACGTGGGGTG | -0.15
TTGTGCACGTGAATAT | 0.31
GTCGTCACGTGAGGGA | 0.18
TTGCGCACGTGCGAGG | -0.25
GAAGCCACGTGGGGCG | -0.14
GTGGCCACGTGAGGAT | 0.17
TCACGCACGTGTGAGG | 0.02
GTCTTCACGTGGTGGC | 0.33
AGGGACACGTGACGGT | 0.09
TCTGGCACGTGGGTGC | -0.28
TGTAACACGTGTAAGG | 0.24
AGTTCCACGTGATGTG | 0.21
GTGCACACGTGCTGGG | -0.04
CGTTGCACGTGGTAAA | -0.06
GTATGCACGTGAGTCT | 0.24
ATGACCACGTGTGTTT | 0.1
AGGGTCACGTGGGAAC | -0.02
TGTCGCACGTGTTAGT | 0
AGCTACACGTGGTTTG | 0.01
TGGCTCACGTGAGCTT | 0.42
AATTGCACGTGAGGAT | 0.09
GTCTGCACGTGGTGAA | 0.01
GGGTCCACGTGAGGGG | 0.24
AGAAGCACGTGATGCG | 0.12
GCTGGCACGTGGCTGG | -0.06
ATGAGCACGTGAACGG | 0.24

Sequence | relative binding free energy [kcal/mol]
GTGCCCACGTGTGTGG | -0.02
GTTCGCACGTGTGTTA | 0.03
TAGGGCACGTGAGAAG | 0.27
TATGACACGTGAAGGT | 0.25
CGATTCACGTGAAGTG | 0.3
CAAGTCACGTGGTTGG | 0.2
TATTGCACGTGTGTGT | 0.02
ACCGTCACGTGGGGTG | -0.1
GGTTTCACGTGAGAGG | 0.32
GGTTCCACGTGGTGTG | 0.08
GGGCTCACGTGGTATT | 0.17
TGTAGCACGTGTTGCT | -0.04
AGACTCACGTGGTGGG | 0.19
TGTCTCACGTGTGTGC | 0.21
ATAATCACGTGATGGT | 0.24
CATAGCACGTGTAGGT | 0.05
GGCGGCACGTGTGTTT | 0.11
TGGGTCACGTGGTGAA | 0.13
TAAACCACGTGGATGT | 0.1
GATTGCACGTGTTGCT | 0.08
ATGGGCACGTGTTTTA | -0.13
TGGGGCACGTGTGCAT | -0.17
TGGGCCACGTGTGGCA | -0.07
GGTGGCACGTGTTGGC | -0.05
CTTGACACGTGGAGGT | 0.08
TTAAGCACGTGTTGAA | -0.04

Sequence | relative binding free energy [kcal/mol]
TATGTCACGTGACGTT | 0.22
TATTCCACGTGGTAGT | -0.03
CGGATCACGTGTGTTG | 0.2
GGAGGCACGTGGCGAT | -0.01
GGGTCCACGTGGTTAG | -0.02
ATGGCCACGTGTGGCG | -0.1
CGCAGCACGTGTGGTA | 0.14
TACGGCACGTGGGGTT | -0.31
TGAGGCACGTGCAGGA | -0.06
AATTACACGTGAAGGG | 0.3
TGGCGCACGTGTATAG | -0.16
TGAAGCACGTGTATGG | 0.02
TTATTCACGTGATGGA | 0.09
TTTGGCACGTGGTATG | -0.12
GGGGCCACGTGAGTGT | 0.19
TTTGTCACGTGCCAGG | 0.15
GGGATCACGTGGACTT | 0.39
TCGGGCACGTGGGGTT | -0.24
GGAAACACGTGAGTTG | 0.35
AACGTCACGTGTTTTG | 0.03
CGGTGCACGTGGTATT | -0.2
GCGTTCACGTGTTCGT | 0.18
ATTTGCACGTGTGTTG | 0.02
TTAAGCACGTGGAGAG | -0.16
GCGTACACGTGTTAGG | 0.21
GGAGTCACGTGCTTGT | 0.18

Sequence | relative binding free energy [kcal/mol]
CGATTCACGTGTTTGG | 0.34
TTAATCACGTGCATTT | 0.28
GATTTCACGTGGCAGG | 0.31
TTAGGCACGTGGTAAT | -0.11
TATATCACGTGAGCGT | 0.14
TTTAACACGTGGTTCG | 0
TTGATCACGTGCTTTG | 0.03
GGCAGCACGTGGAGGA | 0.05
TCAATCACGTGCGGGG | 0.18
ATTAGCACGTGTTGTT | -0.01
AGTGTCACGTGCCGGT | -0.05
ATCGTCACGTGTTGGA | 0.16
GTGGGCACGTGGTGAT | -0.05
TGTAACACGTGGGTTT | -0.03
CTGTTCACGTGTGGGG | 0.25
TGAATCACGTGTTAAT | 0.15
AAATACACGTGTCGGG | 0.15
TGTTACACGTGTCAGG | 0.07
GGTACCACGTGGTGTT | -0.04
TAACGCACGTGGGGGC | -0.29
TATTTCACGTGTTAGC | 0.29
ATTAACACGTGAAGTA | 0.35
